Experimental findings from the supplement of paper PMC9446081 are described below.

Screen size: about 39,000 compounds; about 220 (0.56%) showed activity. This is one part of the list.
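Note: static incubation at 37 °C against the wild-type strain, values averaged over two biological replicates.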

For this assay, the system named is Escherichia coli K-12 BW25113. The assay is described as follows: relative growth (OD600 normalised to plate interquartile mean) (fraction); higher = less growth inhibition, active = 0.2 or less. The conditions noted are these: 50 µM; LB; incubation time: overnight (16-24 h).
Regarding `C[C@@H]1CCCCO[C@H](CN(C)Cc2ccncc2)[C@H](C)CN([C@@H](C)CO)C(=O)c2cc(NC(=O)Nc3cccc4ccccc34)ccc2O1`, the relative growth is inactive: 0.957. To `Cc1noc(C)c1NC(=O)Nc1ccc2c(c1)C(=O)N([C@@H](C)CO)C[C@H](C)[C@H](CN(C)Cc1ccccc1)OCCCC[C@H](C)O2` belongs inactive: 1.01; to `O=c1c2ccccc2oc2ccc(O)cc12`, inactive: 1.11; to `Cc1noc(C)c1NC(=O)Nc1ccc2c(c1)C(=O)N([C@@H](C)CO)C[C@H](C)[C@@H](CN(C)C(=O)NC1CCCCC1)OCCCC[C@H](C)O2`, inactive: 1.01. The figure for `O=C(N[C@H]1CC[C@@H](CCn2cc(C3(O)CCCC3)nn2)O[C@@H]1CO)C1CCOCC1` is inactive: 0.878; for `C[C@@H]1CCCCO[C@@H](CN(C)Cc2ccc(C(=O)Nc3ccccc3N)cc2)[C@@H](C)CN([C@H](C)CO)C(=O)c2cc(NC(=O)C3CCCCC3)ccc2O1` it is inactive: 0.943.

`CC(C)(O)[C@@H](O)Cc1cc(O)ccc1O[C@H]1O[C@@H](CO)[C@@H](O)[C@@H](O)[C@@H]1O`: the relative growth was inactive: 0.993.

Regarding `O=c1cc(-c2ccc(O)cc2)oc2cc(O)ccc12`, the relative growth is inactive: 1.09.

In the case of `C[C@@H]1CCCCO[C@H](CN(C)Cc2ccc3c(c2)OCO3)[C@H](C)CN([C@H](C)CO)C(=O)c2cc(NC(=O)Nc3ccc(F)cc3)ccc2O1`, the relative growth is inactive: 1.03. The figure for `O=C(CCCCCCC(=O)Nc1ccc([C@H]2O[C@@H](CSc3nc(-c4ccccc4)c(-c4ccccc4)o3)C[C@H](c3ccccc3)O2)cc1)NO` is inactive: 0.985. To `CC(C)NC(=O)Nc1ccc2c(c1)C(=O)N([C@H](C)CO)C[C@H](C)[C@H](CN(C)S(C)(=O)=O)OCCCC[C@@H](C)O2` belongs inactive: 0.996; to `Cc1ccc(S(=O)(=O)N(C)C[C@H]2Oc3ncc(Br)cc3C(=O)N([C@H](C)CO)C[C@@H]2C)cc1`, inactive: 1.01; to `COc1ccc(CN(C)C[C@@H]2OCCCC[C@H](C)Oc3ccc(NC(=O)Nc4c(C)noc4C)cc3C(=O)N([C@H](C)CO)C[C@H]2C)cc1`, inactive: 1.01.

Regarding `C[C@H]1CN([C@@H](C)CO)C(=O)c2cc(NC(=O)C3CC3)ccc2O[C@H]1CN(C)S(=O)(=O)c1ccc(Cl)cc1`, the relative growth was inactive: 0.997.

Regarding `C[C@H]1CN([C@@H](C)CO)C(=O)c2cc(C#CC3(O)CCCC3)cnc2O[C@H]1CN(C)C(=O)Cc1ccncc1`, the relative growth is inactive: 1.03. The figure for `COc1ccc(S(=O)(=O)Nc2ccc3c(c2)C(=O)N([C@@H](C)CO)C[C@H](C)[C@H](CN(C)S(=O)(=O)c2cn(C)cn2)OCCCC[C@@H](C)O3)cc1` is inactive: 0.997; for `C[C@H](CO)N1C[C@H](C)[C@@H](CN(C)C(=O)C2CCC2)Oc2cc(-c3ccc(C(=O)N(C)C)cc3)ccc2S1(=O)=O` it is inactive: 1.02.

For `COc1cc(C(=O)NS(=O)(=O)c2ccccc2C)ccc1Cc1cn(C)c2ccc(NC(=O)OC3CCCC3)cc12`, the relative growth is inactive: 1.01. The figure for `O=C(C[C@H]1CC[C@H]2[C@@H](COC[C@H](O)CN2C(=O)c2ccncc2)O1)NC1CCC1` is inactive: 0.972; for `COc1ccc(NC(=O)N(C)C[C@H]2Oc3ccc(NC(=O)CCCCCC(=O)Nc4ccccc4N)cc3C(=O)N([C@@H](C)CO)C[C@H]2C)cc1` it is inactive: 1.01; for `C[C@H](CO)N1C[C@H](C)[C@H](CN(C)S(=O)(=O)c2ccccc2)Oc2ncc(C#Cc3ccccc3)cc2C1=O` it is inactive: 1.03. The figure for `O=C(C[C@H]1CC[C@H]2[C@@H](COC[C@@H](O)CN2C(=O)c2ccncc2)O1)NC1CCC1` is inactive: 1.01; for `CN1CCN(C(=O)CC#N)CC1` it is inactive: 0.925; for `C[C@@H]1CCCCO[C@@H](CN(C)S(=O)(=O)c2ccc(F)cc2)[C@@H](C)CN([C@H](C)CO)C(=O)c2cc(NC(=O)Nc3ccc4c(c3)OCO4)ccc2O1` it is inactive: 0.975. To `CCOC(=O)c1c(CN2CCN(Cc3ccccc3)CC2)n(-c2ccccc2)c2cc(Br)c(O)cc12` belongs inactive: 1.01; to `C[C@H](CO)N1C[C@H](C)[C@@H](CN(C)C(=O)c2ccccn2)Oc2cc(C#Cc3ccc(F)cc3)ccc2S1(=O)=O`, inactive: 1.03. In the case of `CCC(=O)N[C@H]1CC[C@@H](CC(=O)OC)O[C@@H]1CO`, the relative growth was inactive: 0.935. The figure for `C[C@@H]1CCCCO[C@H](CN(C)C(=O)NC2CCCCC2)[C@@H](C)CN([C@H](C)CO)C(=O)c2cc(NC(=O)C3CCCCC3)ccc2O1` is inactive: 1.03; for `Cc1c(C)c2c(c(C)c1OC(=O)CCC(=O)OCCO)CC[C@@](C)(CCC[C@H](C)CCC[C@H](C)CCCC(C)C)O2` it is inactive: 0.921. For the molecule `C[C@@H]1CCCCO[C@H](CN(C)S(=O)(=O)c2ccc(Cl)cc2)[C@@H](C)CN([C@H](C)CO)C(=O)c2cc(NC(=O)c3ccccc3)ccc2O1`, the relative growth was inactive: 1.01.

As to `C=CCOC(=O)[C@H]1[C@@H]2C(=O)O[C@@H](c3ccccc3)[C@@H](c3ccccc3)N2[C@@H](c2ccc(OCCOC(=O)[C@@H]3C[C@@H]4C(=O)NCC(=O)N4[C@@H]3c3cccc(OCCO)c3)cc2)[C@]12C(=O)Nc1ccc(I)cc12`, the relative growth is inactive: 1.06.

As to `C[C@@H]1CN([C@H](C)CO)C(=O)Cc2cc(NS(=O)(=O)c3ccc(F)cc3)ccc2O[C@@H]1CN(C)S(=O)(=O)c1cn(C)cn1`, the relative growth was inactive: 1. To `COc1ccc2c3c([nH]c2c1)[C@H](CO)N(C[C@]13CN(C)C1)C(=O)CN1CCOCC1` belongs inactive: 1.04; to `C[C@@H]1CN([C@H](C)CO)C(=O)c2cc(NC(=O)Nc3ccc(C(F)(F)F)cc3)ccc2O[C@H]1CN(C)C(=O)Nc1ccc(F)cc1`, inactive: 1.02; to `CC(C)NC(=O)N(C)C[C@@H]1OCCCC[C@@H](C)Oc2ccc(NS(=O)(=O)c3cn(C)cn3)cc2C(=O)N([C@H](C)CO)C[C@@H]1C`, inactive: 0.973.

As to `COc1ccc(NC(=O)Nc2ccc3c(c2)C(=O)N([C@@H](C)CO)C[C@@H](C)[C@@H](CN(C)C(=O)CCC(F)(F)F)OCCCC[C@H](C)O3)cc1`, the relative growth is inactive: 1.02. To `C[C@@H]1CN([C@@H](C)CO)C(=O)c2cc(NC(=O)NC3CCCCC3)ccc2O[C@@H](C)CCCCO[C@H]1CN(C)C(=O)Nc1ccc2c(c1)OCO2` belongs inactive: 1.02; to `Cc1ccc(S(=O)(=O)N2C[C@H](O)COC[C@@H]3O[C@@H](CC(=O)NCCN4CCCCC4)CC[C@H]32)cc1`, inactive: 1.02; to `C[C@@H]1CN([C@@H](C)CO)C(=O)c2cccc(NS(=O)(=O)c3ccc(F)cc3)c2O[C@@H]1CN(C)S(=O)(=O)c1cn(C)cn1`, inactive: 1.02. To `COCC(=O)N1C[C@@H](C)[C@H](OC)CN(C)C(=O)c2cc(NC(=O)c3ccc(OC)cc3)ccc2OC[C@H]1C` belongs inactive: 0.987; to `Cc1ccc(S(=O)(=O)Nc2ccc3c(c2)C(=O)N([C@H](C)CO)C[C@@H](C)[C@@H](CN(C)C(=O)NC2CCCCC2)OCCCC[C@@H](C)O3)cc1`, inactive: 1.01; to `C[C@H](CO)N1C[C@H](C)[C@@H](CN(C)Cc2ccc(C(F)(F)F)cc2)Oc2c(NC(=O)CCCCCC(=O)Nc3ccccc3N)cccc2C1=O`, inactive: 0.99. The figure for `COc1ccc(NC(=O)Nc2ccc3c(c2)CC(=O)N([C@H](C)CO)C[C@@H](C)[C@@H](CN(C)CC2CCCCC2)O3)cc1` is inactive: 0.977.

For `C[C@@H]1CN([C@@H](C)CO)C(=O)c2cccc(NC(=O)Nc3cccc4ccccc34)c2O[C@H]1CN(C)C(=O)Nc1ccc2c(c1)OCO2`, the relative growth was inactive: 1. To `C[C@@H]1CCCCO[C@@H](CN(C)S(=O)(=O)c2ccc(F)cc2)[C@@H](C)CN([C@@H](C)CO)C(=O)c2cc(NC(=O)C3CCCCC3)ccc2O1` belongs inactive: 0.986. The figure for `C[C@H](CO)N1C[C@H](C)[C@H](CN(C)S(C)(=O)=O)OCc2cn(nn2)CCCC1=O` is inactive: 0.979; for `COCC(=O)N(C)C[C@H]1Oc2cc(C#C[C@@H](C)O)ccc2S(=O)(=O)N([C@@H](C)CO)C[C@H]1C` it is inactive: 0.966; for `COC(=O)C1=C(C)NC(C)=C(C(=O)OCC(C)C)C1c1ccccc1[N+](=O)[O-]` (stereo not given) it is inactive: 0.849. The figure for `C=CCOC(=O)[C@H]1[C@@H]2C(=O)O[C@@H](c3ccccc3)[C@@H](c3ccccc3)N2[C@@H](c2ccc(OCCOC(=O)[C@@H]3C[C@@H]4C(=O)N[C@@H](CC(C)C)C(=O)N4[C@@H]3c3ccc(O)cc3)cc2)[C@]12C(=O)Nc1ccccc12` is inactive: 1.07.

Regarding `C[C@H](CO)N1C[C@H](C)[C@@H](CN(C)C(=O)Nc2ccccc2)Oc2ccc(NC(=O)CCCCCC(=O)Nc3ccccc3N)cc2C1=O`, the relative growth is inactive: 0.945. The figure for `C[C@@H]1CN([C@H](C)CO)C(=O)Cc2cc(N(C)C)ccc2O[C@H]1CN(C)C(=O)Nc1ccc2c(c1)OCO2` is inactive: 0.983; for `O=C(C[C@@H]1C[C@H]2c3cc(NS(=O)(=O)c4ccc(F)cc4)ccc3O[C@H]2[C@@H](CO)O1)NCc1cccc(F)c1` it is inactive: 0.98. For `Cc1noc(C)c1S(=O)(=O)Nc1ccc2c(c1)CC(=O)N([C@H](C)CO)C[C@H](C)[C@@H](CN(C)S(=O)(=O)c1ccc(F)cc1)O2`, the relative growth is inactive: 0.972. In the case of `C=CCOC(=O)[C@@H]1[C@H]2C(=O)O[C@H](c3ccccc3)[C@H](c3ccccc3)N2[C@H](c2ccc(OCCOC(=O)[C@@H]3C[C@@H]4C(=O)N[C@@H](Cc5ccccc5)C(=O)N4[C@@H]3c3ccc(O)cc3)cc2)[C@@]12C(=O)Nc1ccccc12`, the relative growth is inactive: 1.06. To `COc1cccc(C#Cc2ccc3c(c2)O[C@@H](CN(C)C(C)=O)[C@@H](C)CN([C@H](C)CO)S3(=O)=O)c1` belongs inactive: 1.03.
